# Measured values reported in a collection of fitness landscapes (doi:10.1038/s41467-024-54723-y).
# In all, about 18,000 sequences were measured (“TetR repression strength (sort-seq, GFP reporter)”: median about 0.23, highest 2% from about 0.68 on). The list shows a part of the results.
# Biological target: TetR (class B, Tn10) (UniProt P04483)
# Experiment: TetR repression strength (sort-seq, GFP reporter) (relative to tetO2 = 1); higher = stronger repression
# Conditions: E. coli
# Outline: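 Three independent transformations of E. coli SIG10-MAX were made with a low-copy plasmid library randomizing eight operator positions between a constitutive promoter and sfGFP, with constitutive TetR. Following 5 h at 37 °C in LB plus 50 µg/mL chloramphenicol, 10^6 cells went through FACS into 13 fluorescence bins, and each bin was sequenced by Illumina. Repression strength was defined as the top bin index plus one minus the read-weighted mean bin, divided by the unaltered operator's value. Averages included only members reaching ≥30 reads in all replicates with a CV ≤0.5.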
# Sequence of UniProt P04483 (P04483 whole entry): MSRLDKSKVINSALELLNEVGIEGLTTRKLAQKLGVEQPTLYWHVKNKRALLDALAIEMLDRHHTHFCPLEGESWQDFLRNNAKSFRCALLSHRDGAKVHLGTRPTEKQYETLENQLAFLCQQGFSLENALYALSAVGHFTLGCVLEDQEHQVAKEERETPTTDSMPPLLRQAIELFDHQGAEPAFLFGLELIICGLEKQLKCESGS
row,Sequence,TetR repression strength
1,TCCCGATCAGTCGGTGAGA,0.335
2,TCCCATAAAGTGTTCGAGA,0.401
3,TCCCCGGAAGTGCAAGAGA,0.628
4,TCCCCAGAAGTATGAGAGA,0.26
5,TCCCGAGGAGTTACCGAGA,0.216
6,TCCCTGATAGTGTCGGAGA,0.213
7,TCCCCTCCAGTATTCGAGA,0.315
8,TCCCACAAAGTTTTAGAGA,0.207
9,TCCCGTGTAGTATGGGAGA,0.39
10,TCCCGACGAGTGAGGGAGA,0.303
11,TCCCCGTGAGTCAAGGAGA,0.28
12,TCCCCGGGAGTCTGGGAGA,0.161
13,TCCCGCGAAGTTATGGAGA,0.415
14,TCCCTGAGAGTCTGAGAGA,0.196
15,TCCCTAGTAGTCCTGGAGA,0.137
16,TCCCCGAGAGTACACGAGA,0.262
17,TCCCTTGTAGTGCTAGAGA,0.272
18,TCCCAGGGAGTTACGGAGA,0.31
19,TCCCTATCAGTGTCTGAGA,0.556
20,TCCCGAGAAGTGACGGAGA,0.17
21,TCCCTCAAAGTAAGGGAGA,0.189
22,TCCCGGCCAGTTCGCGAGA,0.343
23,TCCCACGCAGTGAACGAGA,0.326
24,TCCCGAATAGTGTCGGAGA,0.173
25,TCCCGTAGAGTCCTCGAGA,0.357
26,TCCCGGGAAGTCGATGAGA,0.12

row,Sequence,TetR repression strength
1,TCCCGAAGAGTGTGAGAGA,0.18
2,TCCCCACTAGTTTGAGAGA,0.232
3,TCCCACGCAGTTTTGGAGA,0.104
4,TCCCGGCAAGTCATGGAGA,0.23
5,TCCCGTGCAGTACGTGAGA,0.255
6,TCCCCCCCAGTTACAGAGA,0.398
7,TCCCTGAGAGTGTGGGAGA,0.158
8,TCCCTTATAGTTCCCGAGA,0.41
9,TCCCATGCAGTAGCTGAGA,0.135
10,TCCCGATCAGTTGAAGAGA,0.18
11,TCCCTAAGAGTCGGTGAGA,0.286
12,TCCCTCAAAGTCCCGGAGA,0.367
13,TCCCGATTAGTGCTGGAGA,0.223
14,TCCCCCGGAGTAAATGAGA,0.265
15,TCCCTTATAGTTGGCGAGA,0.143
16,TCCCGAATAGTATTAGAGA,0.173
17,TCCCGGAGAGTGTGCGAGA,0.122
18,TCCCTGGTAGTCGAAGAGA,0.187
19,TCCCTTAAAGTCTACGAGA,0.771
20,TCCCACGGAGTCCGAGAGA,0.139
21,TCCCTTGCAGTGGGAGAGA,0.33
22,TCCCATGAAGTGATTGAGA,0.192
23,TCCCACAAAGTGGGGGAGA,0.131
24,TCCCTGTGAGTGCAGGAGA,0.264
25,TCCCTCGGAGTCGGTGAGA,0.164
